Experimental data reported in article PMC8292346, “Dysfunction of the key ferroptosis-surveilling systems hypersensitizes mice to tubular necrosis during acute kidney injury” (Nature Communications, 2021).

System: freshly isolated primary murine renal tubules
Assay: Spontaneous LDH release over time of freshly isolated kidney tubules (glycine medium)
Format: cell-based
Settings: mice injected 2 mg/kg 30 min before kidney removal
Protocol: The LDH release of cells or of freshly isolated kidney tubules was measured according to manufacturers’ instructions at indicated time points. In brief, an aliquot of the supernatant was taken and Lysis Solution was added for 45 min to induce maximal LDH release before another aliquot of the supernatant was taken. Subsequently, the supernatants were incubated with CytoTox 96® Reagent for 15 min protected from light at room temperature before adding Stop Solution. Absorbance was measured at 490 nm.
Primary murine renal tubules were isolated following a modified previously established protocol. […] Kidney slices of each kidney were transferred in 2 ml reaction tube containing 2 mg/ml collagenase type II in incubation solution (48 μg/ml trypsin inhibitor, 25 μg/ml DNAse I, 140 mM NaCl, 0.4 mM KH2PO4, 1.6 mM K2HPO4 · 3 H2O, 1 mM MgSO4 · 7 H2O, 10 mM CH3COONa · 3 H2O, 1 mM α-ketoglytarate and 1.3 mM Ca-gluconate) and digested for 5 min at 37 °C, 850 rpm. Due to the presence of damaged tubules, the first resulting supernatant was discarded and 1 ml of 2 mg/ml collagenase type II in incubation solution was added to the kidney slices and digested for 5 min at 37 °C, 850 rpm. The supernatant was collected and transferred in a 2 ml reaction tube containing 1 ml ice-cold sorting solution (0.5 mg/ml bovine albumin in incubation solution). The reaction tubes were left on ice for the tubules to precipitate. The supernatant was removed and the tubules were washed twice with ice-cold incubation solution. Once the tubules precipitated the supernatant was removed and the ice-cold sorting solution was added (the volume was adjusted depending on the number of samples needed for the experiment). Tubules were distributed in a twenty-four-well plate containing Dulbecco’s Modified Eagle Medium F-12 Nutrient Mixture without phenol red (DMEM/F12, Thermo Fisher), supplemented with 0.01 mg/ml recombinant human insulin, 5.5 μg/ml human transferrin, 0.005 μg/ml sodium selenite (Na2SeO3) (ITS without linoleic acid, Sigma Aldrich), 50 nM hydrocortisone, 100 U/ml penicillin, and 100 μg/ml streptomycin (Pen/Strep, Thermo Fisher).
All of the experiments performed contain a negative control to assess LDH release at 0 h of incubation as a quality control. No more than 10% LDH release in these negative controls was tolerated. […] Isolated murine renal tubules were placed in twenty four-well plates containing the respective agents diluted in Dulbecco’s Modified Eagle Medium F-12 Nutrient Mixture without phenol red (DMEM/F12, Thermo Fisher), supplemented with 0.01 mg/ml recombinant human insulin, 5.5 μg/ml human transferrin, 0.005 μg/ml Na2SeO3 (ITS without linoleic acid, Sigma Aldrich), 50 nM hydrocortisone, 100 U/ml penicillin, and 100 μg/ml streptomycin (Pen/Strep, Thermo Fisher). After the indicated time points, the medium of each well was collected and tubules were prepared for an LDH release assay. Images of the treated murine renal tubules were obtained using a 20x/0.30 PH1 objective on a Leica DMi1 microscope.

Row | Structure (SMILES) | LDH release (0 hours) | LDH release (2 hours) | LDH release (4 hours) | LDH release (6 hours) | LDH release (8 hours) | LDH release (24 hours)
1 | CCOC(=O)c1ccc(NC2CCCCC2)c(N)c1 [Fer-1, ferrostatin-1] | 5.29% | 12.36% | 14.81% | 19.61% | 18.71% | 64.13%
2 | CN1C(=O)C(Cc2c[nH]c3c(Cl)cccc23)NC1=S (stereo not drawn) [Nec-1f] | 6.47% | 15.29% | 17.46% | 20.94% | 23.28% | 68.19%
